Values joined by “and” are separate entries in the source; they are usually repeats but may differ in a detail not shown here. Identical values can stand only once.
Substrate: CC(C)(C)OC[C@@H]1C(=O)NCCN1C(=O)C[C@H](N)Cc1cc(F)c(F)cc1F
Assay: not read
Details: other: CYP3A4, isoenzyme equation; pH 7.4; 37.0 °C

B1: CYP3A4 (Homo sapiens) (protein)
chain: MALIPDLAMETWLLLAVSLVLLYLYGTHSHGLFKKLGIPGPTPLPFLGNILSYHKGFCMFDMECHKKYGKVWGFYDGQQPVLAITDPDMIKTVLVKECYSVFTNRRPFGPVGFMKSAISIAEDEEWKRLRSLLSPTFTSGKLKEMVPIIAQYGDVLVRNLRREAETGKPVTLKDVFGAYSMDVITSTSFGVNIDSLNNPQDPFVENTKKLLRFDFLDPFFLSITVFPFLIPILEVLNICVFPREVTNFLRKSVKRMKESRLEDTQKHRVDFLQLMIDSQNSKETESHKALSDLELVAQSIIFIFAGYETTSSVLSFIMYELATHPDVQQKLQEEIDAVLPNKAPPTYDTVLQMEYLDMVVNETLRLFPIAMRLERVCKKDVEINGMFIPKGVVVMIPSYALHRDPKYWTEPEKFLPERFSKKNKDNIDPYIYTPFGSGPRNCIGMRFALMNMKLALIRVLQNFSFKPCKETQIPLKLSLGGLLQPEKPVVLKVESRDGTVSGA
Km: 10.9 µM and 13.0 µM
kcat: 112.8 pmol/min/pmol CYP
